Laboratory results reported in the supplement of paper PMC8728848.
This is one part of the list.

Columns and labels:
Assay in all cases: glycan array binding signal (z-score within array); higher = stronger binding
Conditions in all cases: glycan notation: IUPAC condensed, linker removed
[1] = biological target: Gal(b1-4)GlcNAc(b1-2)Man(a1-3)[Gal(b1-4)GlcNAc(b1-2)Man(a1-6)]Man(b1-4)GlcNAc(b1-4)[Fuc(a1-6)]GlcNAc
Summary of the method: (§1)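 The Consortium for Functional Glycomics database supplied 3228 glycan arrays, of which those lacking an available protein sequence were dropped. The binding signal, a within-array Z-score, was averaged across arrays of the same protein sequence and across linkers. Negative scores can be read as non-binding.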

[2] = biological target: Gal(b1-4)GlcNAc(b1-2)Man(a1-3)[Gal(b1-4)GlcNAc(b1-2)Man(a1-6)][Gal(b1-4)GlcNAc(b1-4)]Man(b1-4)GlcNAc(b1-4)[Fuc(a1-6)]GlcNAc
Summary of the method: as §1

[3] = biological target: Gal(b1-4)GlcNAc(b1-2)Man(a1-3)[Gal(b1-4)GlcNAc(b1-2)Man(a1-6)][GlcNAc(b1-4)]Man(b1-4)GlcNAc(b1-4)[Fuc(a1-6)]GlcNAc
Summary of the method: as §1

[4] = biological target: Gal(b1-4)GlcNAc(b1-2)Man(a1-3)[GlcNAc(b1-2)Man(a1-6)]Man(b1-4)GlcNAc(b1-4)GlcNAc
Summary of the method: as §1

[5] = biological target: Gal(b1-4)GlcNAc(b1-2)Man(a1-3)[GlcNAc(b1-4)][Gal(b1-4)GlcNAc(b1-2)Man(a1-6)]Man(b1-4)GlcNAc(b1-4)GlcNAc
Summary of the method: as §1

[6] = biological target: Gal(b1-4)GlcNAc(b1-2)Man(a1-3)[Man(a1-6)]Man(b1-4)GlcNAc(b1-4)GlcNAc
Summary of the method: as §1

[7] = biological target: Gal(b1-4)GlcNAc(b1-2)Man(a1-6)Man(b1-4)GlcNAc(b1-4)GlcNAc
Summary of the method: as §1

[8] = biological target: Gal(b1-4)GlcNAc(b1-2)Man(a1-6)[GlcNAc(b1-2)Man(a1-3)]Man(b1-4)GlcNAc(b1-4)GlcNAc
Summary of the method: as §1

[9] = biological target: Gal(b1-4)GlcNAc(b1-2)Man(a1-6)[Man(a1-3)]Man(b1-4)GlcNAc(b1-4)GlcNAc
Summary of the method: as §1

[10] = biological target: Gal(b1-4)GlcNAc(b1-2)[Gal(b1-4)GlcNAc(b1-4)]Man(a1-3)[Gal(b1-4)GlcNAc(b1-2)Man(a1-6)]Man(b1-4)GlcNAc(b1-4)GlcNAc
Summary of the method: as §1

[11] = biological target: Gal(b1-4)GlcNAc(b1-2)[Gal(b1-4)GlcNAc(b1-4)]Man(a1-3)[Gal(b1-4)GlcNAc(b1-2)[Gal(b1-4)GlcNAc(b1-6)]Man(a1-6)]Man(b1-4)GlcNAc(b1-4)GlcNAc
Summary of the method: as §1

[12] = biological target: Gal(b1-4)GlcNAc(b1-2)[Gal(b1-4)GlcNAc(b1-4)]Man(a1-3)[GlcNAc(b1-4)][Gal(b1-4)GlcNAc(b1-2)Man(a1-6)]Man(b1-4)GlcNAc(b1-4)GlcNAc
Summary of the method: as §1

[13] = biological target: Gal(b1-4)GlcNAc(b1-2)[Gal(b1-4)GlcNAc(b1-4)]Man(a1-3)[GlcNAc(b1-4)][Gal(b1-4)GlcNAc(b1-2)[Gal(b1-4)GlcNAc(b1-6)]Man(a1-6)]Man(b1-4)GlcNAc(b1-4)GlcNAc
Summary of the method: as §1

[14] = biological target: Gal(b1-4)GlcNAc(b1-2)[Gal(b1-4)GlcNAc(b1-6)]Man(a1-6)[Gal(b1-4)GlcNAc(b1-2)Man(a1-3)]Man(b1-4)GlcNAc(b1-4)GlcNAc
Summary of the method: as §1

[15] = biological target: Gal(b1-4)GlcNAc(b1-2)[Gal(b1-4)GlcNAc(b1-6)]Man(a1-6)[Gal(b1-4)GlcNAc(b1-2)Man(a1-3)]Man(b1-4)GlcNAc(b1-4)[Fuc(a1-6)]GlcNAc
Summary of the method: as §1

[16] = biological target: Gal(b1-4)GlcNAc(b1-2)[Gal(b1-4)GlcNAc(b1-6)]Man(a1-6)[GlcNAc(b1-4)][Gal(b1-4)GlcNAc(b1-2)Man(a1-3)]Man(b1-4)GlcNAc(b1-4)GlcNAc
Summary of the method: as §1

[17] = biological target: Gal(b1-4)GlcNAc(b1-2)[Gal(b1-4)GlcNAc(b1-6)]Man(a1-6)[GlcNAc(b1-4)][Gal(b1-4)GlcNAc(b1-2)[Gal(b1-4)GlcNAc(b1-4)]Man(a1-3)]Man(b1-4)GlcNAc(b1-4)[Fuc(a1-6)]GlcNAc
Summary of the method: as §1

[18] = biological target: Gal(b1-4)GlcNAc(b1-3)Gal(b1-3)GalNAc
Summary of the method: as §1

[19] = biological target: Gal(b1-4)GlcNAc(b1-3)Gal(b1-3)GlcNAc
Summary of the method: as §1

B1: PX9961V-pdi-562-26-562 (Parabacteroides distasonis) (protein)
chain: EIFSEITTDNYYQNSNNIYAALVNNYAKAFSTGWSDARYFLQEVTADQLMIPTRGKHGYNGGEYVRLHEHKWTVEENFVYNGWAAPFQGIALCNNTLSDFENLDFSTFKLTEETKNEYIAELRALRVWNYMFLIDFFRHVPIVTDIEEVKAQSTPLEVFNFMESELLAILPDLPKNRGVSRFDQAGVASILVRLYLNAEKWIGISKYDECEQMAQAILDGKYGEYSIDPDYRGPFRSGINGYRSKENIMEFAIKKNYFEASWLYNMWMHYQDRYSLDNDWQGWNGGNLAPSRDLYGNLYQDKLGMPFEKFPDGDIRKKAFRVISNDGDYEGFFLMGTQYKFDYEKGYGFTDEVITGTEEYNGKPLVYVDQVGRFSEGETGLAKGSHVIYGEENTGYRLIKFPWLPQSKDLFQMNSIPEIRLAEIYYSLAECKYRSGDKIGAARLLDVVRKRYYKAEDWSKFSYESNISKLTDDEFVDELGREFIGERHRRIDLIRWNRFSEGAWWDKTPDATNQDVFPIPYRALNANPLLKQTTAGF
In the case of B1, the “glycan array binding signal (z-score)” value [1] is reported as -0.101, the “glycan array binding signal (z-score)” value [2] is reported as -0.645 and the “glycan array binding signal (z-score)” value [3] is reported as -0.74. The “glycan array binding signal (z-score)” value [4] was -0.368, the “glycan array binding signal (z-score)” value [5] was 1.53 and the “glycan array binding signal (z-score)” value [6] was -0.16. The “glycan array binding signal (z-score)” value [7] was 0.439, the “glycan array binding signal (z-score)” value [8] was 0.185 and the “glycan array binding signal (z-score)” value [9] was 0.897. For the same binder, the “glycan array binding signal (z-score)” value [10] was -0.472, the “glycan array binding signal (z-score)” value [11] was -0.483 and the “glycan array binding signal (z-score)” value [12] was -0.171. For the same binder, the “glycan array binding signal (z-score)” value [13] was -0.137, the “glycan array binding signal (z-score)” value [14] was 1.12 and the “glycan array binding signal (z-score)” value [15] was -0.02. The “glycan array binding signal (z-score)” value [16] was 1.28, the “glycan array binding signal (z-score)” value [17] was -0.471 and the “glycan array binding signal (z-score)” value [18] was 0.14. For the same binder, the “glycan array binding signal (z-score)” value [19] was -0.125.
